Experimental data published in PubChem BioAssay AID2676 (National Center for Advancing Translational Sciences (NCATS), 2010).
Screen size: about 370,000 compounds; about 1,100 (0.3%) were called active. Inconclusive means that the source gave no clear call. Such entries were picked first, then a sample of the others. Calls come from the whole dose curve; as a rule, active = well fitted activation curve with a large enough effect; inconclusive = small, poorly fitted or top-dose-only effect; inactive = flat fitted curve, though single readings scatter. Where the call is inconclusive, the potency comes from a doubtful curve fit.

biological target: Relaxin receptor 1 (Homo sapiens) (UniProt Q9HBX9); assay: qHTS Assay for Agonists of the Relaxin Receptor RXFP1; details: HEK293T-RXFP1 cAMP TR-FRET, 30 min; series mostly up to 57.5 µM; activation: at the top concentration; note: nearly all actives have a fitted effect of over 60% in size
In short: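 cAMP rise read by TR-FRET after 30 min, 37C compound exposure (up to 58 uM) in RXFP1-transfected HEK293 cells with Ro 20174 present. EC50 from Hill-equation fits, with 29 nM porcine relaxin as 100% and buffer as basal.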
% is set by controls: 0 for no effect and ±100 for the full control effect; potency is the fitted concentration of half-maximal effect; tags give direction and shape of the fitted curve.

Sequence of UniProt Q9HBX9 (Q9HBX9 whole entry, looked up): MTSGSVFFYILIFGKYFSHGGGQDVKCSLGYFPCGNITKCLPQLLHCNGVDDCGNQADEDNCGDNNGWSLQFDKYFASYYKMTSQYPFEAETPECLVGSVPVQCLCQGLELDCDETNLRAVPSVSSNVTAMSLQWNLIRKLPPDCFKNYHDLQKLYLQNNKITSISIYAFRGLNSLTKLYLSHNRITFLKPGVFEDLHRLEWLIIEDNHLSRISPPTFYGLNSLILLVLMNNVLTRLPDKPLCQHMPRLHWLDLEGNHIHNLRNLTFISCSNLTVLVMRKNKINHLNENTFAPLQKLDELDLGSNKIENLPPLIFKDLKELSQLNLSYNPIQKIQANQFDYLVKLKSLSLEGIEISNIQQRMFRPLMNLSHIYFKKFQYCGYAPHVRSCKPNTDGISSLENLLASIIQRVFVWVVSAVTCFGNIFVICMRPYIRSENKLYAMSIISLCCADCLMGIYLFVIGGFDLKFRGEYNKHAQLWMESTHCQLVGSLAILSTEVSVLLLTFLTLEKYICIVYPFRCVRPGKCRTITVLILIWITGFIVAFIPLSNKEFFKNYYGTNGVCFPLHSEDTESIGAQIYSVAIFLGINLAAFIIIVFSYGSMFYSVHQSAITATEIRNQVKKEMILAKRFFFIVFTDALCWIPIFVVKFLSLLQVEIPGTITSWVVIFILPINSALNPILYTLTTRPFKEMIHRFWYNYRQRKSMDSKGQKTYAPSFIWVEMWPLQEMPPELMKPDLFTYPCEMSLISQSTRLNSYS

SMILES | Potency | activation
O=C(CCCCCn1c(=O)c2sccc2n(Cc2ccccc2Cl)c1=O)NCc1ccc2c(c1)OCO2 | active: 31.6 µM | –
O=C(Nc1ncccn1)c1ccc([N+](=O)[O-])o1 | active: 17.8 µM | –
Cc1ccc2nc(-c3ccc(NC(=O)COc4ccc(Br)cc4Br)cc3)sc2c1 | inconclusive: 3.98 µM [activator, single point] | –
CCOC(=O)c1ccc(NC(=O)CC(=O)Nc2ccc3nc4n(c(=O)c3c2)CCCCC4)cc1 | inconclusive: 39.8 µM [activator, single point] | –
CC(C)CCNC(=O)C1CCN(C(=O)c2cc3sccc3n2Cc2ccc(Cl)cc2)CC1 | – | inactive: 1.07%
Fc1ccccc1NC(=S)Nc1cccc2cnccc12 | – | inactive: 1.34%
CC(C)CCN1C(=O)c2ccc(C(=O)Nc3ccc(Br)cc3C(=O)O)cc2C1=O | – | inactive: 0.121%
O=C1C(Cl)=C(N2CCCC2)C(=O)N1c1ccc(F)cc1 | – | inactive: 0.283%
CC(OC(=O)c1cc(Br)ccc1O)C(=O)NCc1ccc2c(c1)OCO2 (centres undefined) | inconclusive: 35.5 µM [activator, single point] | –
CC(=O)c1cccc(NC(=O)c2cc(=O)c3ccccc3o2)c1 | inconclusive: 39.8 µM [activator, single point] | –
CC(=O)OCC1=C(C(=O)O)N2C(=O)C(NC(=O)c3ccc(F)cc3)C2SC1 (centres undefined) | – | inactive: -0.0195%
CC(=O)c1ccc(NC(=S)NC(=O)Cc2ccc(Cl)cc2)cc1 | inconclusive: 28.2 µM [activator, single point] | –
Cc1c(C(=O)NC(C)c2ccccc2)sc2ncnc(N(C)C3CCCCC3)c12 (centres undefined) | inconclusive: 20 µM [activator, partial curve] | –
CCOc1ccccc1-c1nc(-c2ccc(C)nc2OC)no1 | – | inactive: 2.22%
O=C(CSc1ncnc2c1oc1ccccc12)Nc1nc2ccccc2s1 | inconclusive: 17.8 µM [activator, partial curve] | –
CCOC(=O)c1cc2c(=O)n3ccccc3nc2n(CC2CCCO2)c1=NC(=O)c1ccc(C(C)(C)C)cc1 (centres undefined) | inconclusive: 31.6 µM [activator, single point] | –
Cn1c2ccccc2c(=O)c2c(=O)n(Cc3ccco3)c(-c3ccc(Cl)cc3Cl)nc21 | inconclusive: 39.8 µM [activator, single point] | –
COc1cc(C(C)=O)ccc1OCC(=O)Nc1ccc2nc(C)sc2c1 | inconclusive: 28.2 µM [activator, single point] | –
CCN(CC)S(=O)(=O)c1cccc(NC(=O)COc2ncnc3sccc23)c1 | inconclusive: 22.4 µM [activator, partial curve] | –
COc1ccc(C)cc1Nc1nc2c(S(=O)(=O)c3cccc(Cl)c3)nnn2c2ccsc12 | inconclusive: 3.16 µM [activator, single point] | –
CCOCCCn1c(=N)c(C(=O)NC2CCCCC2)cc2c(=O)n3ccccc3nc21 | inconclusive: 17.8 µM [activator, partial curve] | –
Cc1ccc(NC(=O)CSc2nc3ccc(NC(=O)c4ccco4)cc3s2)cc1 | inconclusive: 35.5 µM [activator, single point] | –

SMILES | Potency | activation
Cn1c(=O)cc(SCC(=O)NCc2ccc(F)cc2)c2cc(Cl)ccc21 | inconclusive: 39.8 µM [activator, single point] | –
O=C(O)Cc1sc(-c2ccccc2)nc1-c1cccs1 | inconclusive: 17.8 µM [activator, partial curve] | –
CCOc1ccc(S(=O)(=O)Nc2nc3ccccc3nc2-n2ccc(=NC(=O)c3cccs3)cc2)cc1 | inconclusive: 35.5 µM [activator, single point] | –
O=C(CSc1nnc(-c2ccc(F)cc2)c2ccccc12)NCC1CCCO1 (centres undefined) | inconclusive: 22.4 µM [activator, partial curve] | –
COc1cccc(NC(=O)c2ccc(S(=O)(=O)N3CCCC3)cc2)c1 | – | inactive: 3.25%
CC(=O)c1sc(NC(=O)C2CCCN2S(=O)(=O)c2ccccc2F)nc1C (centres undefined) | inconclusive: 31.6 µM [activator, single point] | –
N#Cc1c(N2CCOCC2)nsc1-c1ccc(C(F)(F)F)cc1 | inconclusive: 35.5 µM [activator, single point] | –
CCOC(=O)N1CCc2c(sc3nc[nH]c(=O)c23)C1 | inconclusive: 14.1 µM [activator, partial curve] | –
Cc1ccc(C(=O)Nc2ncc([N+](=O)[O-])s2)cc1 | – | inactive: 0.761%
O=C(N=c1ccn(-c2nc3ccccc3nc2NS(=O)(=O)c2ccccc2)cc1)c1ccccc1Cl | inconclusive: 28.2 µM [activator, partial curve] | –
O=c1c2c(-c3cccs3)csc2[nH]c(=S)n1-c1ccccc1 | inconclusive: 14.1 µM [activator, partial curve] | –
Cn1c(=O)c2c(nc(Cc3ccccc3)n2C)n(C)c1=O | inconclusive: 28.2 µM [activator, partial curve] | –
CSc1ncc(Cl)c(C(=O)Nc2ccc(S(=O)(=O)N3CCC(C)CC3)cc2)n1 | – | inactive: 4.56%
COC(=O)Cn1c(CN2CCN(C(=O)c3ccco3)CC2)nc2c1c(=O)n(C)c(=O)n2C | – | inactive: 18%
CC(=O)C1=C(O)C(=O)N(CCc2c[nH]c3ccccc23)C1c1ccccc1 (centres undefined) | inconclusive: 17.8 µM [activator, partial curve] | –
O=C1c2ccccc2C(=O)c2[nH]cnc21 | inconclusive: 17.8 µM [activator, partial curve] | –
COc1ccccc1C(=O)Nc1c(C(=O)N(CCN(C)C)Cc2ccco2)oc2ccccc12 | inactive | –
COc1ccc(CNC(=O)CCc2nnc3ccc(NCCCN4CCCC4=O)nn23)cc1 | inconclusive: 20 µM [activator, partial curve] | –
CCOC(=O)c1cc(OC(=O)c2cccs2)n(-c2ccccc2)n1 | inconclusive: 31.6 µM [activator, single point] | –
Clc1ccc(OCCN2CCCCC2)cc1Cl | – | inactive: 1.37%
COC(=O)CNc1n[nH]c(=S)[nH]c1=O | inconclusive: 7.08 µM [activator, partial curve] | –
COc1ccc(C2/C(=C(/O)c3ccc4c(c3)CC(C)O4)C(=O)C(=O)N2CCCn2ccnc2)cc1 (centres undefined) | inconclusive: 25.1 µM [activator, partial curve] | –
